Measured values from the supplement of paper PMC8728848.
The other results are listed elsewhere or left out.

Columns and labels:
Assay in all cases: glycan array binding signal (z-score within array); higher = stronger binding
Conditions in all cases: glycan notation: IUPAC condensed, linker removed
Fuc(a1-2)Gal = target: Fuc(a1-2)Gal
Outline: (§1)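 Columns mapping to the same glycan were averaged after glycan names were converted to IUPAC-condensed notation. The data come from 3228 arrays in the Consortium for Functional Glycomics database, limited to those with an available protein sequence. Binding is reported as a within-array Z-score averaged across arrays of one protein sequence and across linkers.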

Fuc(a1-2)Gal(b1-3)GalNAc = target: Fuc(a1-2)Gal(b1-3)GalNAc
Outline: as §1

[1] = target: Fuc(a1-2)Gal(b1-3)GalNAc(a1-3)[Fuc(a1-2)]Gal(b1-4)Glc
Outline: as §1

[2] = target: Fuc(a1-2)Gal(b1-3)GalNAc(a1-3)[Fuc(a1-2)]Gal(b1-4)GlcNAc
Outline: as §1

[3] = target: Fuc(a1-2)Gal(b1-3)GalNAc(b1-3)Gal
Outline: as §1

[4] = target: Fuc(a1-2)Gal(b1-3)GalNAc(b1-3)Gal(a1-4)Gal(b1-4)Glc
Outline: as §1

[5] = target: Fuc(a1-2)Gal(b1-3)GalNAc(b1-4)[Neu5Ac(a2-3)]Gal(b1-4)Glc
Outline: as §1

Fuc(a1-2)Gal(b1-3)GlcNAc = target: Fuc(a1-2)Gal(b1-3)GlcNAc
Outline: as §1

[6] = target: Fuc(a1-2)Gal(b1-3)GlcNAc(b1-2)Man(a1-3)[Fuc(a1-2)Gal(b1-3)GlcNAc(b1-2)Man(a1-6)]Man(b1-4)GlcNAc(b1-4)GlcNAc
Outline: as §1

[7] = target: Fuc(a1-2)Gal(b1-3)GlcNAc(b1-2)Man(a1-3)[Fuc(a1-2)Gal(b1-3)GlcNAc(b1-2)Man(a1-6)]Man(b1-4)GlcNAc(b1-4)[Fuc(a1-6)]GlcNAc
Outline: as §1

[8] = target: Fuc(a1-2)Gal(b1-3)GlcNAc(b1-3)Gal(b1-4)Glc
Outline: as §1

[9] = target: Fuc(a1-2)Gal(b1-3)GlcNAc(b1-3)GalNAc
Outline: as §1

[10] = target: Fuc(a1-2)Gal(b1-3)GlcNAc(b1-3)[Fuc(a1-2)Gal(b1-3)GlcNAc(b1-6)]GalNAc
Outline: as §1

[11] = target: Fuc(a1-2)Gal(b1-3)GlcNAc(b1-3)[Gal(b1-4)GlcNAc(b1-6)]Gal(b1-4)Glc
Outline: as §1

[12] = target: Fuc(a1-2)Gal(b1-3)GlcNAc(b1-3)[Neu5Ac(a2-6)Gal(b1-4)GlcNAc(b1-6)]Gal(b1-4)Glc
Outline: as §1

[13] = target: Fuc(a1-2)Gal(b1-3)GlcNAc6S
Outline: as §1

[14] = target: Fuc(a1-2)Gal(b1-3)[Fuc(a1-4)]GlcNAc
Outline: as §1

[15] = target: Fuc(a1-2)Gal(b1-3)[Fuc(a1-4)]GlcNAc(b1-2)Man(a1-3)[Fuc(a1-2)Gal(b1-3)[Fuc(a1-4)]GlcNAc(b1-2)Man(a1-3)]Man(b1-4)GlcNAc(b1-4)GlcNAc
Outline: as §1

[16] = target: Fuc(a1-2)Gal(b1-3)[Fuc(a1-4)]GlcNAc(b1-2)Man(a1-3)[Fuc(a1-2)Gal(b1-3)[Fuc(a1-4)]GlcNAc(b1-2)Man(a1-6)]Man(b1-4)GlcNAc(b1-4)[Fuc(a1-6)]GlcNAc(b1-4)[Fuc(a1-6)]GlcNAc
Outline: as §1

[17] = target: Fuc(a1-2)Gal(b1-3)[Fuc(a1-4)]GlcNAc(b1-3)[Fuc(a1-3)[Gal(b1-4)]GlcNAc(b1-6)]Gal(b1-4)Glc
Outline: as §1

[18] = target: Fuc(a1-2)Gal(b1-3)[Fuc(a1-4)]GlcNAc(b1-3)[Gal(b1-4)GlcNAc(b1-6)]Gal(b1-4)Glc
Outline: as §1

[19] = target: Fuc(a1-2)Gal(b1-4)Fuc(a1-3)]GlcNAc(b1-2)Man(a1-3)[Fuc(a1-2)Gal(b1-4)[Fuc(a1-3)]GlcNAc(b1-2)Man(a1-6)]Man(b1-4)GlcNAc(b1-4)GlcNAc
Outline: as §1

Fuc(a1-2)Gal(b1-4)Glc = target: Fuc(a1-2)Gal(b1-4)Glc
Outline: as §1

Fuc(a1-2)Gal(b1-4)Glc6S = target: Fuc(a1-2)Gal(b1-4)Glc6S
Outline: as §1

Fuc(a1-2)Gal(b1-4)GlcNAc = target: Fuc(a1-2)Gal(b1-4)GlcNAc
Outline: as §1

[20] = target: Fuc(a1-2)Gal(b1-4)GlcNAc(b1-2)Man
Outline: as §1

[21] = target: Fuc(a1-2)Gal(b1-4)GlcNAc(b1-2)Man(a1-3)[Fuc(a1-2)Gal(b1-4)GlcNAc(b1-2)Man(a1-6)]Man(b1-4)GlcNAc(b1-4)GlcNAc
Outline: as §1

[22] = target: Fuc(a1-2)Gal(b1-4)GlcNAc(b1-2)Man(a1-3)[Fuc(a1-2)Gal(b1-4)GlcNAc(b1-2)Man(a1-6)]Man(b1-4)GlcNAc(b1-4)[Fuc(a1-6)]GlcNAc
Outline: as §1

[23] = target: Fuc(a1-2)Gal(b1-4)GlcNAc(b1-2)[Fuc(a1-2)Gal(b1-4)GlcNAc(b1-4)]Man(a1-3)[Fuc(a1-2)Gal(b1-4)GlcNAc(b1-2)Man(a1-6)]Man(b1-4)GlcNAc(b1-4)GlcNAc
Outline: as §1

[24] = target: Fuc(a1-2)Gal(b1-4)GlcNAc(b1-3)Gal(b1-4)GlcNAc
Outline: as §1

[25] = target: Fuc(a1-2)Gal(b1-4)GlcNAc(b1-3)Gal(b1-4)GlcNAc(b1-2)Man(a1-3)[Fuc(a1-2)Gal(b1-4)GlcNAc(b1-3)Gal(b1-4)GlcNAc(b1-2)Man(a1-6)]Man(b1-4)GlcNAc(b1-4)GlcNAc
Outline: as §1

[26] = target: Fuc(a1-2)Gal(b1-4)GlcNAc(b1-3)Gal(b1-4)GlcNAc(b1-3)Gal(b1-4)GlcNAc
Outline: as §1

[27] = target: Fuc(a1-2)Gal(b1-4)GlcNAc(b1-3)GalNAc
Outline: as §1

[28] = target: Fuc(a1-2)Gal(b1-4)GlcNAc(b1-3)[Fuc(a1-2)Gal(b1-4)GlcNAc(b1-6)]GalNAc
Outline: as §1

[29] = target: Fuc(a1-2)Gal(b1-4)GlcNAc(b1-3)[Fuc(a1-3)[Gal(b1-4)]GlcNAc(b1-6)]Gal(b1-4)Glc
Outline: as §1

[30] = target: Fuc(a1-2)Gal(b1-4)GlcNAc(b1-6)GalNAc
Outline: as §1

[31] = target: Fuc(a1-2)Gal(b1-4)GlcNAc6S
Outline: as §1

B1: LFA (Limax flavus) (protein)
chain: MSVLFLAASFLLLASFELVAAQGCPRQDPGDWIVIQRRLNADVNFYRGWADYKHGFGDLRCNFWLGNEKIHQLTSHGRYKLRVEFTFNNKSYFAEYSTFKILGEADKYKLQVGGYSGNAGDALTFHNGMAFSTNDRDNDADSIDCAKVYHGAWWYKTCHESNLNGKWGSKKYGEGLNWKAKTTFTATATSSLLKIKALK
Q: How did the “glycan array binding signal (z-score)” value (Fuc(a1-2)Gal) turn out when B1 was run?
A: -0.242

Q: What about the “glycan array binding signal (z-score)” value (Fuc(a1-2)Gal(b1-3)GalNAc) of the same binder?
A: -0.289

Q: And the “glycan array binding signal (z-score)” value [1]?
A: -0.216

Q: And the “glycan array binding signal (z-score)” value [2]?
A: -0.211

Q: What about the “glycan array binding signal (z-score)” value [3] of the same binder?
A: 0.278

Q: And the “glycan array binding signal (z-score)” value [4]?
A: -0.304

Q: What about the “glycan array binding signal (z-score)” value [5] of the same binder?
A: 0.072

Q: What about the “glycan array binding signal (z-score)” value (Fuc(a1-2)Gal(b1-3)GlcNAc) of the same binder?
A: -0.302

Q: And the “glycan array binding signal (z-score)” value [6]?
A: 0.702

Q: What about the “glycan array binding signal (z-score)” value [7] of the same binder?
A: -0.033

Q: And the “glycan array binding signal (z-score)” value [8]?
A: -0.177

Q: What about the “glycan array binding signal (z-score)” value [9] of the same binder?
A: -0.347

Q: And the “glycan array binding signal (z-score)” value [10]?
A: -0.22

Q: What about the “glycan array binding signal (z-score)” value [11] of the same binder?
A: -0.37

Q: What about the “glycan array binding signal (z-score)” value [12] of the same binder?
A: -0.319

Q: What about the “glycan array binding signal (z-score)” value [13] of the same binder?
A: -0.167

Q: What about the “glycan array binding signal (z-score)” value [14] of the same binder?
A: -0.313

Q: And the “glycan array binding signal (z-score)” value [15]?
A: 0.682

Q: And the “glycan array binding signal (z-score)” value [16]?
A: -0.337

Q: What about the “glycan array binding signal (z-score)” value [17] of the same binder?
A: -0.134

Q: What about the “glycan array binding signal (z-score)” value [18] of the same binder?
A: -0.345

Q: What about the “glycan array binding signal (z-score)” value [19] of the same binder?
A: 1.54

Q: What about the “glycan array binding signal (z-score)” value (Fuc(a1-2)Gal(b1-4)Glc) of the same binder?
A: -0.315

Q: And the “glycan array binding signal (z-score)” value (Fuc(a1-2)Gal(b1-4)Glc6S)?
A: -0.296

Q: What about the “glycan array binding signal (z-score)” value (Fuc(a1-2)Gal(b1-4)GlcNAc) of the same binder?
A: -0.285

Q: And the “glycan array binding signal (z-score)” value [20]?
A: -0.352

Q: What about the “glycan array binding signal (z-score)” value [21] of the same binder?
A: 0.771

Q: What about the “glycan array binding signal (z-score)” value [22] of the same binder?
A: 0.6

Q: And the “glycan array binding signal (z-score)” value [23]?
A: 0.009

Q: And the “glycan array binding signal (z-score)” value [24]?
A: -0.293

Q: What about the “glycan array binding signal (z-score)” value [25] of the same binder?
A: -0.088

Q: And the “glycan array binding signal (z-score)” value [26]?
A: -0.269

Q: What about the “glycan array binding signal (z-score)” value [27] of the same binder?
A: -0.197

Q: What about the “glycan array binding signal (z-score)” value [28] of the same binder?
A: -0.186

Q: What about the “glycan array binding signal (z-score)” value [29] of the same binder?
A: -0.28

Q: And the “glycan array binding signal (z-score)” value [30]?
A: -0.085

Q: And the “glycan array binding signal (z-score)” value [31]?
A: -0.341
